# ChEMBL document CHEMBL4888484, “Replenishing the malaria drug discovery pipeline: Screening and hit evaluation of the MMV Hit Generation Library 1 (HGL1) against asexual blood stage Plasmodium falciparum ,using a nano luciferase reporter read-out” (2022)
# About 540 (0.36%) of roughly 150,000 compounds showed an effect of 50% or more. Some of the results follow.
# Test system: Plasmodium falciparum
# Assay: Primary screen in NF54 nanoGlo assay, in single point, at 2uM, 72h; a lower Z score goes with more inhibition
# Assay type: functional, Erythrocyte
# Details: timepoint 72 hour
Structure (SMILES),% Inhibition [%],Z score
Cc1ccc(CN(CC(=O)Nc2ccc(Br)cn2)C(C)C)o1,-3,0.4
COc1ccc(CCc2nc(NC(=O)c3nc(C)sc3C)n[nH]2)cc1OC,71,-9.67
CCOC1CN(S(=O)(=O)Cc2ccn(CC(F)(F)F)n2)C1,-7,1.43
COc1ccc(OCCNc2nc(C)cc(=O)[nH]2)cc1,2,-0.32
CO[C@@]12CC[C@@H](Oc3ccccn3)C[C@@H]1N(C(=O)CC(C)(C)C)CC2,-15,1.44
Clc1cccc([C@@H]2c3cccn3CCCN2Cc2cccc(Oc3ccccc3)c2)c1,-7,1
O=C1N[C@@H](Cc2c[nH]c3ccccc23)C(=O)N[C@H]1CO,-10,1.44
CC1(C)C[C@@H](NC(=O)c2cncc(F)c2)CCO1,-1,0.14
O=C(NCCOc1ccc2c(c1)OCO2)c1ccn2ccnc2c1,22,-2.61
CCOC(=O)c1sc(NC)nc1C(F)(F)F,40,-5.15
Cc1nc(N)nc(NC[C@@H](C(C)C)N(C)C)c1Cl,16,-2.15
CN1CCC2OCCN(Cc3coc(-c4ccc(F)cc4)n3)C2C1 (configuration not stated),-8,0.9
Cc1noc(C)c1CN(C)S(=O)(=O)c1cc(Cl)cc(C(=O)O)c1C,-8,1.02
O=C(COc1ccccc1)N1CCCN(c2nc3ccccc3nc2-c2ccccc2)CC1,-3,0.35
COc1ccc(C(=O)N(CCO)CCN2CCOCC2)c(OC2CCCC2)c1,34,-0.44
Cc1cc2ncc(Br)cc2nc1O,-3,0.38
COC(C(=O)N1C[C@H](C(=O)O)[C@@H](c2ccc(Br)cc2)C1)C1CC1 (some centres not stated),-1,0.13
CCOc1nc2c(c(C)nn2-c2ccccc2)c(C)c1CCC(=O)N1CCN(c2ccccn2)CC1,9,-1.29
COCCc1nsc(NCc2cccnc2)n1,1,-0.12
C[C@]1(C(=O)O)Nc2ccccc2-c2nc(=O)c(-c3ccccc3)nn21,31,-0.82
O=C(NCCN1CCCC[C@@H]1CO)c1ncccc1O,-19,1.72
Cc1nnc2ccc(S(=O)(=O)N(Cc3ccc(F)cc3)c3cccc(Cl)c3)cn12,32,-0.34

Structure (SMILES),% Inhibition [%],Z score
CC1CCC(C)N1C(C)C(=O)Nc1ccc2c(c1)CCN2C(N)=O (configuration not stated),-10,1.23
Cc1ccc2ncn(CCCn3ccnc3C(C)C)c(=O)c2c1,-5,0.79
CC(C)n1[nH]c(=O)c2c1NC(=O)C[C@@]21C(=O)Nc2c(Cl)cc(Cl)cc21,-12,1.54
Cc1cccc(NCC[C@H](O)C(C)C)n1,6,-0.92
CCN(Cc1cnc2ccccn12)C(=O)NCc1ccc(OC)cc1,-2,0.3
CN(Cc1cc2ccccc2[nH]1)C(=O)[C@@H](O)c1ccccc1,-13,1.14
Cc1ccc(NC(=O)c2cc(-c3cnn(-c4ccc(C(C)C)cc4)c3C)nc3ccccc23)c(Cl)c1,-4,0.56
Cc1c(C(=O)N2Cc3ccccc3N(C)C[C@@H]2C)cnn1C(C)C,-10,1.9
Cc1cc(C)nc(C(C#N)C(=O)C2CC2c2c(F)cccc2F)n1 (configuration not stated),3,-0.57
Cc1noc(C)c1CN(C)C(=O)[C@H]1CCCN(S(C)(=O)=O)C1,-10,1.51
Cc1ccc([C@H]2CN(C(=O)C3CCCCC3)C[C@@H]2N(C)C)cc1,14,-1.79
C[C@@H](c1nccs1)n1ccnc1-c1cc(-c2ccccc2)no1,-13,1.21
O=C(NOCc1cccnc1)N1CCC[C@@H]1Cn1ccnc1,-5,0.71
O=C(CN1C(=O)NC2(CCCC2)C1=O)c1ccc2c(c1)OCCO2,35,-3.92
C=CCOC[C@@H](O)CN(CCOC)Cc1cccn1C,-5,0.71
CC(C)(C)c1ccc(-n2ncc3c2CCC[C@@H]3NC(=O)Cc2cnc3ncnn3c2)cc1,-14,2.42
C[C@@H](c1nc2ccccc2c(=O)[nH]1)N(C)CCN(C)C1CCCCC1,-2,0.26
CS(=O)(=O)CCn1ccnc1-c1ccccc1-c1ccco1,-19,2.85
COc1cccc(NC(=O)N2CC(O)CC2C2CCCCC2)c1 (configuration not stated),34,-5.28
CCCCNC(=O)C(C)N1CCN(C)C(C(C)(C)C)C1 (configuration not stated),-9,1.68
Cc1sc(CCNC(=O)[C@@H]2CCC(=O)N2)nc1-c1ccccc1,-10,1.12
CCC1Oc2cc(C(C)NC(=O)C3=Cc4ccccc4OC3)ccc2NC1=O (configuration not stated),-15,1.65

Structure (SMILES),% Inhibition [%],Z score
CCNC(=O)c1ccc(N2CC(O)CC2CO)nc1 (configuration not stated),-2,0.33
CCc1cc(O)nc(CN(C)Cc2csc([C@H](C)OC)n2)n1,-10,1.85
c1ccc2oc(CN3CCC(Cn4ccnc4)CC3)cc2c1,-16,1.58
CC(C)n1cc(-c2ncnn2-c2ccc3c(c2)OCCO3)cn1,-8,0.99
O=S(=O)(N1CCOCC1)N1CCC[C@H]1c1nc2ccccc2s1,-5,0.75
COC(=O)c1cccc2c1CCN(C(=O)c1nc(C)oc1C)C2,-5,0.91
O=C(N[C@@H](CO)c1cccc(Cl)c1F)c1occ2c1CCOC2,-2,0.27
CCOc1ccc(CN2C[C@H](OC)[C@@H](O)C2)cn1,-16,1.44
CCn1nc(CN2CCS(=O)(=O)c3ccccc3C2)c2ccccc21,0,0.05
CCc1nnc2n1C[C@@H](NCc1cnc(-c3ccccc3)nc1)CC2,5,-1
CCc1nnc2n1C[C@@H](NCc1ccc(N3CCOCC3)cc1)CC2,-2,0.45
Cc1ccccc1Cc1nnc2n1CCCC2,-8,1.32
Cc1nc2ccnn2cc1C(=O)N[C@H]1CCC(=O)N(C)C1=O,-8,1.59
O=C(CCc1ccc(O)cc1)N1C[C@@H]2CC[C@H]1CN(Cc1ccccn1)C2,7,-1.03
c1ccc(NC2=NNC(Nc3ccccc3)=NN2)cc1,8,-1.03
O=C(N1CCn2nncc2C1)[C@]1(O)CCc2cc(Br)ccc2C1,4,-0.62
CCOCCCNC(=O)CN1C(=O)CCn2nc(-c3cccc(Cl)c3)cc21,2,-0.24
CCN(CC)C(=O)N1CCC[C@H](Oc2nc(C(C)C)nc3c2CCOCC3)C1,-6,1.01
CC(C)(C)NC(=O)COC(=O)c1cccc(F)c1,-7,1.06
Cc1noc(C)c1C(=O)Nc1sc(C)c(-c2ccccc2)c1C(N)=O,-13,1.69
CN(CCc1noc(COc2ccccc2F)n1)S(=O)(=O)c1cccc(C#N)c1,-12,1.16
Cc1cc(Cl)ccc1CNCc1cccc(-c2nnc[nH]2)c1,-4,0.78

Structure (SMILES),% Inhibition [%],Z score
Clc1ccc(Oc2nc(-c3ccccc3)c3cc(Br)ccc3n2)cc1,-4,0.72
COCc1cc(N[C@@H]2COCC[C@@H]2OCCO)ncn1,-21,1.93
OC[C@@H]1CCCN1Cc1cc(O)c2cccc(Cl)c2n1,0,-0.09
C[n+]1cn(CC(=O)Nc2ccccc2)c2ccccc21,-1,0.18
CC1CCCC(OCC(=O)N2CCC3(C2)OCCO3)C1 (configuration not stated),-8,0.97
c1ccc2c(c1)C[C@H](Cc1ccc(NC3CCCC3)nn1)CO2,5,-0.67
CN(C[C@H](O)C(F)(F)F)S(=O)(=O)c1ccccc1,-3,0.28
CC(C)Cc1cc(CN2CCCn3nc(C#N)cc3C2)no1,-9,1.3
CN(C)CCn1ccnc1C1CCN(C(=O)c2cnn3ccccc23)CC1,-14,2.4
O=C(Nc1ccncc1F)N[C@H]1CCCc2occc21,-8,1.43
Cc1nc([C@@H]2CCCCN2Cc2cn(C)nc2C2CC2)no1,-1,0.13
CN(C(=O)Cn1c(=O)n(-c2cc(F)cc(F)c2)c(=O)c2sccc21)c1ccccc1,36,-4.06
COc1ccc(C(OC(=O)c2cscn2)C(C)n2cccn2)cc1 (configuration not stated),-6,0.81
Cc1c(Cl)cccc1S(=O)(=O)n1cc2c(=O)n(C(C)C)c(=O)n(C(C)C)c2n1,2,-0.21
Cc1cc(C)cc(N2C[C@@H](c3nnc(NC(=O)c4ccccc4F)s3)CC2=O)c1,-1,0.11
CC(C)(C)n1cc(CNc2nnc(C3CC3)o2)nn1,-9,1.51
O=C(O)c1nc2ccccn2c1-c1ccc(F)c2cccnc12,-21,1.86
COCCc1nc(-c2cc3ncccn3n2)n(Cc2ccccc2C)n1,5,-0.89
COCCOCC(=O)N1CC[C@H](OCc2ccccc2)C1,-18,2.04
COc1cc(CN2C(=O)N[C@]3(CC(C)(C)OC3(C)C)C2=O)ccn1,4,-0.76
